Measured values as given in PubChem BioAssay AID1345082 (National Center for Advancing Translational Sciences (NCATS), 2018).
The campaign covered roughly 94,000 compounds. About 4,000 (4.3%) were called active. Inconclusive results, whose numbers are uncertain, are shown with a selection of clear calls. Calls come from the whole dose curve; as a rule, active = well fitted inhibition curve with a large enough effect; inconclusive = small, poorly fitted or top-dose-only effect; inactive = no such curve, though single readings can be large or run the other way. A potency beside an inconclusive call is a rough fit, not a confirmed value.

assay: Cytotoxic Profiling in NIH 3T3 Cell Line of Diverse Libraries Using Quantitative High-Throughput Screening; settings: NIH 3T3 viability, CellTiter-Glo ATP luminescence, 48-72 h; activity change, negative = cytotoxicity: at 96.7 µM (top of the series) unless noted; series mostly up to 96.7 µM; note: nearly all actives have a fitted effect of over 55% in size
In short: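 ATP-dependent luminescence (CellTiter-Glo) served as the viability signal for NIH 3T3 cells treated with compound for 48 or 72 hr at 37 °C.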
% is set by controls: 0 for no effect and ±100 for the full control effect; potency is the fitted concentration of half-maximal effect; tags give direction and shape of the fitted curve.

Structure (SMILES)	Potency	activity change, negative = cytotoxicity
N#Cc1ccc(C(=O)N2C[C@@H]3C[C@H](C2)c2ccc(-c4ccc(OC(F)(F)F)cc4)c(=O)n2C3)cc1	inconclusive: 35.5 µM [inhibitor, partial curve, poor fit]	–
N#Cc1cccc(CN2C3CCC2CN(C(=O)Nc2ccccc2F)C3)c1	–	inactive: 3.56%
CCCCS(=O)(=O)N1CCc2nn(CCOC)c(=O)n2CC1	–	inactive: -6.92%
COCCN1C(=O)CS(=O)(=O)C12CCN(C(=O)c1ccc(F)c(F)c1)CC2	–	inactive: -16.6%
Cn1ncc2c(N[C@@H](Cc3ccccc3)C(N)=O)nc(-c3ccncc3)nc21	inconclusive: 22.4 µM [inhibitor, full curve, poor fit]	–
N#Cc1cccc(CN2CC[C@@H]3OCC(=O)N(c4ccccc4)[C@H]3CC2)c1	inconclusive: 56.2 µM [inhibitor, partial curve, poor fit]	–
C[S+](=O)([O-])NCCNC(=O)c1cccc(-c2ccc(C(F)(F)F)cc2)c1	inconclusive: 56.2 µM [inhibitor, partial curve, poor fit]	–
CC1CCc2sc(C(=O)N(C)Cc3cc(-c4ccncc4)no3)cc2C1 (stereo unspecified)	inconclusive: 50.1 µM [inhibitor, partial curve, poor fit]	–
O=C(C1CC1)N1CCCN(c2ccnc3ccnn23)CC1	–	inactive: -28.5% [at 138 µM]
Cc1ccccc1C(=O)NC1CCN(c2nccc(Nc3ccccc3F)n2)CC1	inconclusive: 44.7 µM [inhibitor, partial curve, poor fit]	–
CNC(=O)[C@@H]1C[C@H](Oc2ccccc2)CN1C(=O)Nc1ccccc1	–	inactive: -6.22%
CC(C)(Oc1nn(Cc2cccc(Cl)c2)c2ccccc12)C(=O)NCCCN1CCCC1=O	inconclusive: 50.1 µM [inhibitor, partial curve, poor fit]	–
O=C(Cc1cccc(Cl)c1)NC1CCN(c2ccc3nnc(C4CC4)n3n2)C1 (stereo unspecified)	inconclusive: 44.7 µM [inhibitor, partial curve, poor fit]	–
O=S(=O)(c1cccnc1)N1CCC2(CC1)NCCc1c2[nH]c2ccccc12	inconclusive: 44.7 µM [inhibitor, partial curve, poor fit]	–
CCN1c2cc(C(=O)NCc3ccc(OC)cc3OC)ccc2C(=O)N2CCCCCC21 (stereo unspecified)	inconclusive: 56.2 µM [inhibitor, partial curve, poor fit]	–
COc1cc(CN2CCN(c3ccc(C#N)cn3)CC2CCO)cc(OC)c1 (stereo unspecified)	inconclusive: 50.1 µM [inhibitor, partial curve, poor fit]	–
c1cncc(CNC[C@H]2Cn3c(-c4ccc5c(c4)OCCO5)cnc3CO2)c1	inconclusive: 89.1 µM [inhibitor, partial curve, poor fit]	–
CC1=C[C@@H](CN(C)CCO)[C@H](C(C)C)C[C@H]1Cc1nnc(-c2ccccc2F)o1	inconclusive: 56.2 µM [inhibitor, partial curve, poor fit]	–
CCN1CC(C(=O)N2CCN(CCOc3ccccc3)CC2)CC1=O (stereo unspecified)	–	inactive: 1.3%
COCCNC(=O)c1cc(-c2ccsc2)nc2c1cnn2C	inconclusive: 89.1 µM [inhibitor, partial curve, poor fit]	–
Cc1cccc(OCC(=O)c2ccc3c(c2)N(C(C)C(=O)N2CCOCC2)C(=O)CO3)c1C (stereo unspecified)	inconclusive: 39.8 µM [inhibitor, partial curve]	–

Structure (SMILES)	Potency	activity change, negative = cytotoxicity
Cc1cc(COc2ccccc2)oc1C(=O)N1CCn2nc(C(C)O)cc2C1 (stereo unspecified)	inconclusive: 50.1 µM [inhibitor, partial curve, poor fit]	–
Cn1ccc2c(C(=O)NCCC(N)=O)nc(-c3ccccc3)cc21	active: 100 µM	–
CC1=NS(=O)(=O)N(Cc2ccccc2)C=C1C(=O)OCC1CC1	inconclusive: 31.6 µM [inhibitor, partial curve, poor fit]	–
Cc1nc(-c2ccc(OC3CCN(C(=O)c4cc(C)n(C)n4)C3)cc2)no1 (stereo unspecified)	inconclusive: 25.1 µM [inhibitor, full curve]	–
Cc1nn(-c2ccccc2)c2c1C(C1CC1)N(C1CN(C(=O)c3ccccn3)C1)C2=O (stereo unspecified)	inconclusive: 31.6 µM [inhibitor, partial curve, poor fit]	–
Cc1cccc(NC(=O)N2CC(Oc3ccccc3-c3noc(C)n3)C2)c1	–	inactive: -11.5%
COc1ccc(CN2CCc3oc(C)c(C(=O)N4CCN(c5ncccn5)CC4)c3C2)cc1	inconclusive: 44.7 µM [inhibitor, partial curve, poor fit]	–
COC(=O)[C@@H]1Cc2ncn(C)c2CN1C(=O)c1ccccc1	–	inactive: -23.2% [at 174 µM]
c1cc(-c2cc(-c3ccc4cn[nH]c4c3)cn3cncc23)ccn1	active: 17.8 µM	–
Cn1nccc1-c1ccc2ncn(Cc3ccccn3)c(=O)c2n1	inconclusive: 100 µM [inhibitor, single point]	–
COc1ncccc1-c1cnc2[nH]cc(CC(=O)Nc3ccccc3)c2c1	active: 39.8 µM	–
Cc1nc(C2CC2)ncc1C(=O)N1CCC2(CC1)OCCCC2O (stereo unspecified)	–	inactive: 3.5%
O=C(NCc1ccc(F)c(F)c1)c1ccc2nc(-c3cccnc3)oc2c1	–	inactive: -20.3% [at 138 µM]
O=C(c1cc(F)ccc1F)N1CCC(OCCOc2ccc(F)cc2)CC1	inconclusive: 25.1 µM [inhibitor, partial curve]	–
COc1cccc(-c2cc(-c3ccc(OC)nc3)c3cncn3c2)c1	inconclusive: 22.4 µM [inhibitor, full curve, poor fit]	–
CC(C(=O)N1CCC2(CC1)N(Cc1ccccc1)C(=O)CS2(=O)=O)c1ccccc1 (stereo unspecified)	inconclusive: 79.4 µM [inhibitor, partial curve, poor fit]	–
COC(C)c1cccc(-c2cc(NC3CC3)nc(N)n2)c1 (stereo unspecified)	inconclusive: 50.1 µM [inhibitor, partial curve, poor fit]	–
Cc1ccccc1CC(=O)N1CCC(n2cc(-c3nc(-c4ccccc4)no3)nn2)CC1	–	inactive: -4.12%
COc1ccccc1Nc1ccnc(N2CCCC(C(=O)NC(C)C)C2)n1 (stereo unspecified)	active: 44.7 µM	–
CCc1cc(=O)n(CC(=O)Nc2ccc(C(F)(F)F)cc2)c(N2CCOCC2)n1	inconclusive: 44.7 µM [inhibitor, partial curve, poor fit]	–
